Test results as given in PubChem BioAssay AID485313 (National Center for Advancing Translational Sciences (NCATS), 2010).
In all, about 320,000 compounds went through this assay and about 7,600 (2.4%) were called active. This list was built around the results that the source calls inconclusive (neither active nor inactive); the mix of calls is not that of the screen. The call rests on the fitted dose curve; in most records, active means well fitted activation curve with a large enough effect; inconclusive means small, poorly fitted or top-dose-only effect; inactive means no such curve, though single readings can be large or run the other way. No potency is given beside an inconclusive call; the fits are too rough.

Assay: qHTS Assay for NPC1 Promoter Activators; further: nearly all actives have a fitted effect of over 60% in size;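 on activation: reporter is driven by a mutant NPC1 promoter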
Conditions: Huh7 NPC1 promoter luciferase reporter, 24 h; series mostly up to 9.22 µM
In short: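 Compounds in DMSO were transferred onto Huh7 NPC1-luciferase reporter cells pre-incubated 2 h; after 24 h at 37 °C, Amplite reagent was dispensed and luminescence recorded 10 min later.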
Potency means the concentration at half of the fitted maximal effect; tags describe the fitted curve by direction and shape.

Row | SMILES | Potency
1 | O=C(CCc1ccccc1)Nc1nc2c(F)cc(F)cc2s1 | inconclusive [activator, single point]
2 | CCOC(=O)C1CCN(C(=O)c2ccc3c(c2)NC(=O)/C(=C/c2ccccc2)S3)CC1 | inactive
3 | Cc1nn(-c2nc3ccccc3[nH]2)c(=O)c2ccccc12 | inconclusive [activator, full curve]
4 | O=C(c1cccc(-c2nnc(-c3ccccc3)o2)c1)N1CCCCC1 | inconclusive [activator, partial curve]
5 | CCn1nnc(NC(=O)c2cc3ccccc3o2)n1 | inconclusive [activator, partial curve]
6 | Nc1nn(-c2ccccc2)c(N)c1N=Nc1ccccc1 | inconclusive [activator, full curve, poor fit]
7 | O=C1c2ccccc2NC2(CCCCC2)N1c1ccc(O)cc1 | inactive
8 | CN1C(=O)N(C)C2(CC1(C)C)CC(C)(C)N(C)C(=O)N2C | inactive
9 | CN(C)C(=O)CCCc1nc(-c2ccc(Cl)cc2)no1 | inconclusive [activator, partial curve]
10 | Cc1oc(=O)c(NC(=O)c2ccccc2)cc1C(=O)c1ccccc1 | inconclusive [activator, single point]
11 | COc1ccc(C(=S)Nc2ccc(N(C)C)cc2)cc1 | active: 3.16 µM
12 | Cn1c(-c2cc3ccc(OC(=O)C(C)(C)C)cc3oc2=O)nc2ccccc21 | inconclusive [activator, partial curve]
13 | O=C(NCCc1c[nH]c2ccccc12)c1ccc(Cl)cc1 | active: 1.78 µM
14 | O=C(Nc1ccc(Oc2ccc(NC(=O)c3ccco3)c(NC(=O)c3ccco3)c2)cc1)c1ccco1 | inactive
15 | Cc1snc(SCC(=O)c2ccc([N+](=O)[O-])cc2)c1C#N | inconclusive [activator, single point]
16 | CC(=O)c1ccc(N2CCN(c3ncccn3)CC2)cc1 | inconclusive [activator, partial curve]
17 | CCOc1ccc(N)c(SSc2cc(OCC)ccc2N)c1 | inconclusive [activator, partial curve]
18 | Cc1nn(-c2ccc(C(=O)O)cc2)c(N)c1-c1ccccc1 | inconclusive [activator, full curve]
19 | CCCc1cc(=O)n2[nH]c(-c3ccccc3)cc2n1 | active: 3.98 µM
20 | CC1CCCCN1C(=O)CSc1nnc(-c2cccs2)o1 (centres undefined) | active: 3.55 µM
21 | N/C(=N\OC(=O)c1ccccc1F)c1ccc([N+](=O)[O-])cc1 | inconclusive [activator, partial curve]
22 | CCOCCCNC(=O)c1cc2c(=O)n3ccccc3nc2s1 | inconclusive [activator, partial curve]
23 | CCNC(=O)c1sc(-c2ccccc2)nc1C | inconclusive [activator, partial curve]
24 | COC(=O)c1ccc(NC(=O)c2cc(-c3ccncc3)nc3ccccc23)cc1 | inactive
25 | Cc1cc2nc(SCCN3CCOCC3)[nH]c2cc1C | active: 3.98 µM

Row | SMILES | Potency
26 | O=C(Nc1ccc(-c2nc3ccccc3[nH]2)cc1)C1CCCO1 (centres undefined) | active: 0.355 µM
27 | CCOc1ccccc1NC(=O)C1COc2ccccc2O1 (centres undefined) | inconclusive [activator, partial curve]
28 | c1ccc2[nH]c(SCc3ccc(-c4nnco4)cc3)nc2c1 | inconclusive [activator, partial curve]
29 | COCCOc1ccc(C(F)(F)F)cc1Nc1nc2ccccc2o1 | inactive
30 | O=CN1CCN(C(=O)c2ccc(-c3nc4ccccc4s3)s2)CC1 | active: 1.78 µM
31 | COc1ccc(-c2cn3nc(SCC(=O)NCC4CCCO4)ccc3n2)cc1 (centres undefined) | inconclusive [activator, full curve]
32 | Cc1ccc(-c2csc(NC(=O)/C=C/c3ccco3)c2C(=O)O)cc1 | active: 3.16 µM
33 | Cc1nc(C(=O)Nc2ccccc2)sc1C1(C)CC(c2cccnc2)=NO1 (centres undefined) | inconclusive [activator, single point]
34 | Cc1ccc(C(=O)c2ccccc2C(=O)OCC(=O)NCC2CCCO2)cc1 (centres undefined) | inactive
35 | Cc1ccc(NC(=O)c2cnccn2)cc1C | active: 3.16 µM
36 | COc1cc(/C=N/NC(=O)c2ccccn2)cc2c1OCO2 | inconclusive [activator, single point]
37 | C/C(=N\Nc1cccc2cccnc12)c1ccccn1 | active: 3.16 µM
38 | O=C(CSc1nc2ccccc2n1S(=O)(=O)c1cccc([N+](=O)[O-])c1)NCCc1ccccc1 | inactive
39 | O=C(c1ccc(-c2ccccc2Cl)o1)N1CCC1 | inconclusive [activator, single point]
40 | COc1ccc(NC(=O)CSc2nc(N)c(C(=O)Nc3ccc(N(C)C)cc3)s2)cc1 | inconclusive [activator, partial curve]
41 | O=C(OCc1ccc(Cl)c(Cl)c1)c1ccc[nH]1 | inconclusive [activator, partial curve]
42 | CCCCOc1ncnc2c1[nH]c1ccc(C)cc12 | inconclusive [activator, single point]
43 | Cc1ccc(C(=O)Cn2c(=N)n(N)c3ccccc32)cc1 | inconclusive [activator, partial curve]
44 | COc1ccc(C2(CNC(=O)/C=C/c3ccco3)CCCC2)cc1OC | inconclusive [activator, partial curve]
45 | O=C(Nc1ccccc1)Nc1ccc2nnsc2c1 | inconclusive [activator, partial curve]
46 | O=C(CSc1nc(-c2ccccc2)cc(=O)[nH]1)N1CCc2ccccc21 | inactive
47 | COc1cccc(Nc2ncnc3ccccc23)c1 | inconclusive [activator, single point]
48 | Nc1ncnc(NCc2ccccc2)c1[N+](=O)[O-] | inactive
49 | CC(=O)N(c1nnc(-c2cccc(C)c2)s1)C1CCCC1 | inconclusive [activator, partial curve]
